# From PubChem BioAssay AID485281 (National Center for Advancing Translational Sciences (NCATS), 2010)
# In all, about 350,000 compounds went through this assay and about 260 (0.074%) were called active. This list was built around the results that the source calls inconclusive (neither active nor inactive); the mix of calls is not that of the screen. The call rests on the fitted dose curve; in most records, active means well fitted inhibition curve with a large enough effect; inconclusive means small, poorly fitted or top-dose-only effect; inactive means no such curve, though single readings can be large or run the other way. Where the call is inconclusive, the potency comes from a doubtful curve fit.
# Molecular target: Ferritin light chain (Equus caballus) (UniProt P02791)
# Sequence of UniProt P02791 (P02791 whole entry, looked up): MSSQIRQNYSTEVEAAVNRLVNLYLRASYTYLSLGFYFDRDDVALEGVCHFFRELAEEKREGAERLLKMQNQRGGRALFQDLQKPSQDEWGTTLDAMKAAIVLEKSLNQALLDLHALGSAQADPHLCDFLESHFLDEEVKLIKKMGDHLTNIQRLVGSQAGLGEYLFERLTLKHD
# Assay: qHTS Assay for Identification of Novel General Anesthetics; further: nearly all actives have a fitted effect of over 20% in size
# Settings: apoferritin/1-aminoanthracene competitive binding, fluorescence; series mostly up to 77.5 µM
# Method in brief: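 Horse-spleen apoferritin (10 uM) in 50% saturated 1-aminoanthracene in PBS was incubated 10 min at room temperature with compound. Fluorescence (ex 380, em 535 nm) was normalized to free and bound 1-AMA, with concentration-response fitted by a four-parameter Hill equation.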
# Potency means the concentration at half of the fitted maximal effect; tags describe the fitted curve by direction and shape.
row,SMILES,Potency
1,CCN1CCN(c2ncc3c(n2)CCN(Cc2ccc(Br)s2)C3)CC1,inactive
2,NC(=O)CC(NC(=O)c1ccccc1)c1ccc(N2CCN(c3ccccc3)CC2)c([N+](=O)[O-])c1 (centres undefined),"inconclusive: 28.2 µM [inhibitor, partial curve]"
3,NC(=O)COC(=O)/C=C/c1cccc(Br)c1,"inconclusive: 25.1 µM [inhibitor, partial curve]"
4,CN(C)S(=O)(=O)c1cccc(NC(=O)c2cc3ccccc3o2)c1,"inconclusive: 39.8 µM [inhibitor, partial curve]"
5,O=C(c1ccco1)N1CCc2ccccc21,"inconclusive: 35.5 µM [inhibitor, partial curve]"
6,CNC(=O)c1nnsc1S(=O)(=O)c1ccc(Cl)cc1,"inconclusive: 56.2 µM [inhibitor, partial curve]"
7,COc1ccc(C2C3=C(CC(C)(C)CC3=O)Nc3n[nH]c(C)c32)cc1 (centres undefined),"inconclusive: 17.8 µM [inhibitor, partial curve]"
8,CC(C)c1ccc(NC(=O)NC2CC3CCC(C2)N3Cc2cccs2)cc1 (centres undefined),inactive
9,Cn1c(/C(C#N)=C/c2ccc(O)cc2)nc2ccccc21,inactive
10,O=C(NCc1nc2cccnc2n1Cc1ccc(F)cc1)c1ccccc1C(F)(F)F,"inconclusive: 5.01 µM [inhibitor, full curve, poor fit]"
11,CCCCNC(=O)CCC(=O)Nc1ccc2nc(N3CCN(C)CC3)cc(C)c2c1,inactive
12,COc1ccc(C(=O)COC(=O)CCN2C(=O)C3C4CCC(C4)C3C2=O)cc1 (centres undefined),"inconclusive: 15.8 µM [inhibitor, partial curve]"
13,Cc1noc(/C=C/c2ccccc2F)c1S(=O)(=O)N1CCC(C(=O)N(C)Cc2ccco2)CC1,"inconclusive: 56.2 µM [inhibitor, single point]"
14,O=C(CC(=O)N/N=C/c1ccccc1)NCc1ccccc1,"inconclusive: 17.8 µM [inhibitor, partial curve]"
15,Cc1cc(NC(=O)CNC(=O)C2CCCCC2)no1,"inconclusive: 31.6 µM [inhibitor, partial curve]"
16,COc1ccc(Cc2nnc(NC(=O)c3ccccc3C)s2)cc1,"inconclusive: 31.6 µM [inhibitor, partial curve]"
17,CCOc1ccc(N2C(=O)CC(Sc3nc(CC(C)C)ccc3C#N)C2=O)cc1 (centres undefined),"inconclusive: 28.2 µM [inhibitor, partial curve]"
18,COc1ccc(CC2=C(O)c3ccccc3C(=O)C2=O)cc1,inactive
19,Nc1c(C(=O)NCCc2ccccc2)nnn1Cc1ccc(Cl)cc1,"inconclusive: 39.8 µM [inhibitor, single point]"
20,Cc1snc(S(=O)(=O)/C(C#N)=N\Nc2ccccc2)c1C#N,"inconclusive: 39.8 µM [inhibitor, single point]"
21,CCOC(=O)Cn1nc(/C=C/c2ccc(C(C)C)cc2)ccc1=O,"inconclusive: 44.7 µM [inhibitor, partial curve]"
22,CC(=O)Nc1ccc(OCCOc2ccc(/C=C3/C(=N)N4C=CSC4=NC3=O)cc2)cc1,"inconclusive: 31.6 µM [inhibitor, single point]"
23,CC1CCN(C(=O)C2CCCN(S(=O)(=O)c3ccc4c(c3)CC(C)N4C(=O)C3CC3)C2)CC1 (centres undefined),"inconclusive: 44.7 µM [inhibitor, single point]"

row,SMILES,Potency
1,COc1cc(C2c3c(-c4ccccc4)n[nH]c3C(=O)N2c2ccccc2)ccc1O (centres undefined),"inconclusive: 25.1 µM [inhibitor, partial curve]"
2,O=C(/C=C/NNC(=O)c1ccccc1O)c1ccccc1,"inconclusive: 17.8 µM [inhibitor, partial curve]"
3,COc1cccc(N=Cc2ccc(O)cc2O)c1,"inconclusive: 35.5 µM [inhibitor, partial curve]"
4,CC(Oc1ccccc1)C(=O)Nc1ccccc1O (centres undefined),"inconclusive: 31.6 µM [inhibitor, partial curve]"
5,N#CC1(c2ccc(NC(=O)c3ccccc3F)cc2)CCCC1,"inconclusive: 39.8 µM [inhibitor, partial curve]"
6,CCCCOc1ccc2c(c1)C(=O)c1cc(O)ccc1-2,"inconclusive: 35.5 µM [inhibitor, partial curve]"
7,COc1ccc(Cc2nnc(SCC(=O)N3CCCC(C)C3)o2)cc1 (centres undefined),"inconclusive: 17.8 µM [inhibitor, partial curve]"
8,CCC(Cc1ccccc1)NC(=O)Cn1ncc2c3ccccc3n(Cc3ccccc3)c2c1=O (centres undefined),inactive
9,N#Cc1nc(Cc2ccccc2)oc1NCc1ccccc1Cl,inactive
10,Cc1oc(-c2ccc(Cl)cc2)nc1CN1CCC(C(=O)NCCCN2CCN(c3cccc(Cl)c3)CC2)CC1,inactive
11,C=CCN1C(=O)c2ccc(C(=O)NCC(c3ccccc3)N(C)C)cc2C1=O (centres undefined),"inconclusive: 8.91 µM [inhibitor, full curve]"
12,Cc1cccc(NC(=O)CN2CCc3cc4c(cc3C2)OCCCO4)c1,"inconclusive: 39.8 µM [inhibitor, single point]"
13,OCCCc1nc2n(n1)C(c1ccccc1Cl)C=C(c1cccs1)N2 (centres undefined),inactive
14,COc1cccc(CNc2ccc(F)c(Cl)c2)c1OC,"inconclusive: 22.4 µM [inhibitor, partial curve]"
15,Cc1cc(F)ccc1S(=O)(=O)Nc1ccc2c(c1)CCCN2C(=O)c1cccs1,"inconclusive: 12.6 µM [inhibitor, partial curve]"
16,CCOC(=O)CN1C(=O)C(C)(C)Oc2ccc(C(=O)NC(C)(C)CC)cc21,inactive
17,OC1CCN(CC(O)C(F)(F)F)CC1 (centres undefined),inactive
18,Cc1cccn2c(=O)c3cc(C(=O)NCCN4CCOCC4)c(=N)n(Cc4ccc(F)cc4)c3nc12,inactive
19,O=C1c2[nH]nc(-c3ccccc3O)c2C(c2ccccc2F)N1Cc1ccncc1 (centres undefined),inactive
20,COc1cccc(-n2cc3c(c2-c2ccccc2)c(=O)n(C)c(=O)n3C)c1,"inconclusive: 15.8 µM [inhibitor, partial curve]"
21,O=C(CSc1nnc(-c2cc3ccccc3cc2O)n1Cc1ccco1)c1ccc(F)cc1,"inconclusive: 3.98 µM [inhibitor, full curve, poor fit]"
22,Cc1onc(-c2ccccc2Cl)c1C(=O)OCN1C(=O)c2ccccc2C1=O,"inconclusive: 25.1 µM [inhibitor, partial curve]"
23,CCN(CC)S(=O)(=O)c1cc(C(=O)OC)ccc1Cl,"inconclusive: 28.2 µM [inhibitor, single point]"

row,SMILES,Potency
1,Cn1c(C(=O)NCCCN2CCN(c3ccccc3F)CC2)cc2c(=O)[nH]c3ccccc3c21,inactive
2,Cn1ncc(Br)c1C(=O)NC12CC3CC(CC(C3)C1)C2,"inconclusive: 56.2 µM [inhibitor, single point]"
3,CC(=O)N(Cc1ccc(F)cc1)C1=C(NCCc2ccccc2)C(=O)c2ccccc2C1=O,"inconclusive: 22.4 µM [inhibitor, partial curve]"
4,N=c1c2c3c(sc2ncn1N)CCCC3,"inconclusive: 39.8 µM [inhibitor, single point]"
5,Cc1ccc2nc(SC(C)C(=O)Nc3cccc([N+](=O)[O-])c3)[nH]c2c1 (centres undefined),"inconclusive: 56.2 µM [inhibitor, single point]"
6,Cc1cc(=O)[nH]c(N/N=C/c2ccc(OC(=O)c3ccco3)cc2)n1,inactive
7,CCOC(=O)c1nccnc1C(=O)Nc1cccc(C(F)(F)F)c1,inactive
8,COc1cccc(CN2C(=O)c3ccccc3Sc3ccc(C(=O)N(C)Cc4ccccc4)cc32)c1,inactive
9,O=C(NCc1ccco1)C12CC3CC(CC(C3)C1)C2,"inconclusive: 10 µM [inhibitor, partial curve]"
10,CC(NC(=O)C12CC3CC(CC(C3)C1)C2)c1ccc2c(c1)OCCO2 (centres undefined),"inconclusive: 50.1 µM [inhibitor, single point]"
11,Clc1ccsc1-c1csc(-c2cccnc2)n1,"inconclusive: 31.6 µM [inhibitor, partial curve]"
12,CCOC(=O)c1c(-c2ccc(C)o2)csc1NC(=O)CSc1ncn[nH]1,"inconclusive: 11.2 µM [inhibitor, full curve, poor fit]"
13,Cc1c(C(=O)n2cnc3ccccc32)cccc1[N+](=O)[O-],inactive
14,COc1cc(C2c3c(-c4ccccc4O)n[nH]c3C(=O)N2CCO)ccc1OCc1ccccc1 (centres undefined),inactive
15,O=C1CC(=C(c2ccccc2)c2ccccc2)C(=O)N1CCCCN1CCN(c2cccc(Cl)c2)CC1,"inconclusive: 39.8 µM [inhibitor, partial curve]"
16,C=CCn1c(SCn2nnc3ccccc3c2=O)nnc1-c1ccc(Cl)cc1,"inconclusive: 44.7 µM [inhibitor, single point]"
17,CSCCC(/C(O)=C(\C#N)c1nc2ccccc2[nH]1)N1C(=O)c2ccccc2C1=O (centres undefined),"inconclusive: 35.5 µM [inhibitor, partial curve]"
18,Brc1ccc(-c2nn3c(Cc4ccccc4)nnc3s2)o1,"inconclusive: 35.5 µM [inhibitor, partial curve]"
19,CCCCOc1ccc(C(=O)N/C(=C/C=C/c2ccccc2)C(=O)NC)cc1,"inconclusive: 28.2 µM [inhibitor, partial curve]"
20,O=C(c1ccccc1)C(CCC(CN1CCOCC1)C(=O)c1ccccc1)CN1CCOCC1 (centres undefined),inactive
21,O=C(NCc1ccc2c(c1)CCN2C(=O)c1ccccc1)c1cc2ccccc2[nH]1,inactive
22,O=C(CCl)c1ccc(Cc2ncc(C(F)(F)F)cc2Cl)s1,"inconclusive: 31.6 µM [inhibitor, partial curve]"
23,COc1ccc(CNC(=O)Nc2ccc3c(c2)N(C)C(=O)c2ccccc2S3)cc1,"inconclusive: 14.1 µM [inhibitor, partial curve]"
